Results reported in PubChem BioAssay AID624417 (National Center for Advancing Translational Sciences (NCATS), 2012).
Among all 410,000 compounds or so, about 6,400 (1.6%) were called active. The shares of active, inactive and inconclusive entries below differ from those in the screen. The call rests on the fitted dose curve; in most records, active means well fitted inhibition curve with a large enough effect; inconclusive means small, poorly fitted or top-dose-only effect; inactive means no such curve, though single readings can be large or run the other way. Potencies beside an inconclusive call are fits to weak or partial responses and may not hold up.

target: Glucagon-like peptide 1 receptor (Homo sapiens) (UniProt P43220); assay: qHTS of GLP-1 Receptor Inverse Agonists (Inhibition Mode); settings: HEK293 GLP-1R CRE-luciferase, luminescence, 24 h, GLP-1R form is constitutively active; series mostly up to 38.3 µM; further: nearly all actives have a fitted effect of over 55% in size
Chain of UniProt P43220 (P43220 whole entry, looked up): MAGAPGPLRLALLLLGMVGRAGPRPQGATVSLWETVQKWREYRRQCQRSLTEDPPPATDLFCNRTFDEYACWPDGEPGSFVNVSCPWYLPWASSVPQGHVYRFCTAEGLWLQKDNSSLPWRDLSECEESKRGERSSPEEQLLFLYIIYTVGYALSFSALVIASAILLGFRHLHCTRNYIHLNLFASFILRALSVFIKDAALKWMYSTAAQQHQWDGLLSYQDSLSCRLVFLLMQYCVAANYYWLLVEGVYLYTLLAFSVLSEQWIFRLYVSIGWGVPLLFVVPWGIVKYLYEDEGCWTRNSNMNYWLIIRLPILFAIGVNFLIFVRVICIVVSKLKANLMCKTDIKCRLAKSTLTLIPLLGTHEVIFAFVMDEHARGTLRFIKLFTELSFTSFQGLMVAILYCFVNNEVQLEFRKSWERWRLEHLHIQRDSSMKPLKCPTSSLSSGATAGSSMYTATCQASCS
In short: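 Inverse agonism was detected as reduced cAMP-driven luciferase luminescence after 24 h compound treatment. The cells were HEK293 clones expressing constitutively active human GLP-1R with the reporter. Reporter-only and GPR119 cell lines served as counterscreen controls.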
Potency means the concentration at half of the fitted maximal effect; tags describe the fitted curve by direction and shape.

Potency, inactive:
COc1cc(OC)cc(N2C(=O)CSC23C(=O)Nc2ccccc23)c1 (stereo not given)
COc1cc2c3nnc(-c4ccccc4)c-3cn(Cc3ccc(F)cc3)c2cc1OC
CC(C)(C)c1ccc(C(=O)CC(=O)c2cc(Cl)ccc2O)cc1
Cc1csc2nc(-c3cccc(NC(=O)c4c(F)cccc4F)c3)cn12
CCn1c(O)c(N=NC(=O)CNC(=O)Cc2ccccc2)c2ccccc21
O=C(NCCCc1nc2ccccc2n1Cc1ccccc1F)c1ccco1
O=C1CC(=O)N(Cc2ccco2)C(=S)N1

Potency, inconclusive:
CC(=O)CCc1c(C)[nH]c2ccccc2c1=O 28.2 µM [inhibitor, single point]
Cc1onc(-c2ccc(Cl)cc2Cl)c1-c1csc(N/N=C/c2ccccc2Cl)n1 7.08 µM [inhibitor, partial curve, poor fit]
Cc1c(CC(=O)NCc2ccccc2Cl)c(=O)oc2cc(O)ccc12 20 µM [inhibitor, partial curve, poor fit]
O=C(OCC(=O)N1CCc2ccccc21)c1cccc(S(=O)(=O)N2CCCc3ccccc32)c1 8.91 µM [inhibitor, single point]
COc1cccc(NC(=O)CC2C(=O)NCCN2C(=S)Nc2ccc(F)cc2)c1 (stereo not given) 28.2 µM [inhibitor, single point]
CCOC(=O)Cn1nc(-c2ccccc2)c2cnc3ccc(CC)cc3c21 6.31 µM [inhibitor, partial curve, poor fit]
CCSC1(SCC)N=C(N)C2(C#N)C(c3ccc(F)cc3)C12C#N (stereo not given) 28.2 µM [inhibitor, single point]
CCOc1ccc(Nc2c3c(nc4nncn24)CCC3)cc1 14.1 µM [inhibitor, single point]
Cc1ccc(C(C)C)cc1NC(=O)Nc1ccc([N+](=O)[O-])cc1 1.78 µM [inhibitor, full curve, poor fit]
CCOC(=O)C1=CCN(S(=O)(=O)c2ccccc2Cl)C1c1cccc(Br)c1 (stereo not given) 28.2 µM [inhibitor, single point]
CCOC(=O)C1=C(N)n2c(s/c(=C\c3ccco3)c2=O)=C(C(=O)OC(C)C)C1c1ccco1 (stereo not given) 11.2 µM [inhibitor, single point]
COc1ccc2nc(-c3ccccc3)cc(C(=O)OCC(=O)N3CCCCC3)c2c1 22.4 µM [inhibitor, single point]
O=C(CSc1nnc(-c2ccc(Cl)cc2)n1Cc1ccco1)Nc1ccc2c(c1)OCCO2 20 µM [inhibitor, single point]
O=C(CCc1[nH]c2ccccc2c1Sc1ccccc1)NCCO 12.6 µM [inhibitor, partial curve, poor fit]
COc1cccc(N2CCN(C(=O)c3cc(-c4ccccc4)nc4c3cnn4C(C)C)CC2)c1 28.2 µM [inhibitor, single point]
Cc1cccn2c(Nc3ccccc3)c(-c3ccccn3)nc12 7.94 µM [inhibitor, partial curve, poor fit]
Cc1ccc(-c2csc(/C(C#N)=C(\O)CN3CCN(C(=O)c4ccco4)CC3)n2)cc1 2.82 µM [inhibitor, full curve, poor fit]
S=C(Nc1cccc(Cl)c1Cl)N1CCC2(CC1)OCCO2 20 µM [inhibitor, partial curve, poor fit]
O=C(Nc1ccncc1)c1ccc(S(=O)(=O)Nc2ccccc2)cc1 1.78 µM [inhibitor, partial curve, poor fit]
CCOC(=O)c1c(S(=O)(=O)NCc2ccco2)c(C)n(C)c1C 2.51 µM [inhibitor, partial curve, poor fit]
O=C(CSc1ccc(Br)cc1)Nc1ccccc1N1CCOCC1 1.78 µM [inhibitor, partial curve, poor fit]
Cc1cccc(-c2cc3nc4c(c(N5CCOCC5)n3n2)CCCC4)c1 28.2 µM [inhibitor, single point]
CC1CC(C)CN(C(=O)C(NS(=O)(=O)c2ccc(Br)s2)c2ccccc2)C1 (stereo not given) 7.94 µM [inhibitor, partial curve, poor fit]
O=C(COC(=O)c1c2c(nc3ccccc13)CCCC2)c1ccc(Br)s1 12.6 µM [inhibitor, partial curve, poor fit]
Cc1nn(C(C)(C)C)c(OC(=O)c2c(F)cccc2F)c1Sc1ccccc1 11.2 µM [inhibitor, partial curve, poor fit]
COc1ccc(C(CNC(=O)COc2ccccc2-c2ccccc2)N2CCOCC2)cc1 (stereo not given) 28.2 µM [inhibitor, single point]
CCOC(=O)C1=C(CC)Nc2ccccc2N=C1NC(=O)c1oc2ccccc2c1C 12.6 µM [inhibitor, partial curve, poor fit]
CCn1c(CSCc2ccc(C)cc2)nnc1SCC(=O)N1CCN(c2ccccc2)CC1 12.6 µM [inhibitor, single point]
Cc1cccc(NS(=O)(=O)c2ccc3c(c2)CCCN3C(=O)C2CCC2)c1C 14.1 µM [inhibitor, single point]
CN1C(=O)c2ccccc2Sc2ccc(NC(=O)c3ccc(C#N)cc3)cc21 14.1 µM [inhibitor, single point]
CN(C)c1ccc(-c2csc(C(C)(O)c3cccc(F)c3)n2)cc1 (stereo not given) 20 µM [inhibitor, single point]
CC1CCCC(C)N1C(=O)c1cc(F)c(F)cc1Cl (stereo not given) 10 µM [inhibitor, single point]
CC1(C)Cc2cccc(OCC(=O)Nc3ccccc3C(F)(F)F)c2O1 7.08 µM [inhibitor, partial curve, poor fit]
